Results filed as inconclusive are left out. Unless noted, the call rests on the fitted dose curve. Where a structure was tested more than once in an assay, its records may differ in their call. For part of its entries the source gives two or more results. Only these are listed. The source may hold further records. Values that stand side by side are repeats in other runs, samples, wells, individuals or studies. Records carry a tag for their origin. The letters are not those of the source and start again with each entry.
Potency means the concentration at half of the fitted maximal effect.

The target in one assay is Gonadotropin-releasing hormone receptor (Homo sapiens) (UniProt P30968). The assay can be described thus: Human gonadotropin-releasing hormone receptor (GnRHR) small molecule agonists, calcium flux assay in GnRHR-HEK293 cells (AID 1920063). Further: nearly all actives have a fitted effect of over 35% in size. Particulars: calcium flux fluorescence, agonist mode; series mostly up to 57.6 µM. A digest of the protocol: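 We seeded human GnRHR-expressing HEK293 cells for 18 hours, loaded them with calcium dye for an hour at 37 C, added test compounds, and recorded fluorescence intensity kinetically for three minutes.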
UniProt P30968, sequence (P30968 whole entry, looked up): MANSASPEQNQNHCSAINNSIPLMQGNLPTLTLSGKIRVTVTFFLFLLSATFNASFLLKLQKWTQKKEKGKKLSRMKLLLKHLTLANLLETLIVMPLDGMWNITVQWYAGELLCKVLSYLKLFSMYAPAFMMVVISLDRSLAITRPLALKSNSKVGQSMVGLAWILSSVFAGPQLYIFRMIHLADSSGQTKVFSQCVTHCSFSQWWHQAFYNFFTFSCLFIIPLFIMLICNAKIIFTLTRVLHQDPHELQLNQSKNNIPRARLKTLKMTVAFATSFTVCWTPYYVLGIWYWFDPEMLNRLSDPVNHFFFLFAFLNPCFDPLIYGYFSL
A general note: A change in cytosolic calcium serves as a functional read-out for many receptors and channels.
As to `COCCl`, the Potency entry was “active: 36 µM [sample A] and inactive [sample B]”.

With `Nc1ccc(Cl)cc1N`, the Potency entry was “inactive [sample A] and active: 27.5 µM [sample B]”.

As to `O=C1C2CC=CCC2C(=O)N1SC(Cl)(Cl)Cl` (centres undefined), the Potency entry is “inactive [sample A] and active: 38.3 µM [sample B]”.

In the case of `C1CN2CCN1CC2`, the Potency entry is “inactive [sample A] and active: 38.9 µM [sample B]”.

On to `Oc1ccc(Cl)cc1Cc1ccccc1`, for which the Potency result is “active: 35.1 µM [sample A] and inactive [sample B]”.

As for `C=CCO`, the Potency result is “inactive [sample A] and active: 17.4 µM [sample B]”.

Take `COP(=O)(OC)OC`: the Potency entry was “active: 39.2 µM [sample A] and inactive [sample B]”.

Another assay addresses KiSS-1 receptor (Homo sapiens) (UniProt Q969F8). The assay can be described thus: Human kisspeptin (KISS1R) small molecule agonists, calcium flux assay in KISS1R-HEK293 cells (AID 1920064; active means well fitted activation curve with a large enough effect in the repeat runs). To be noted: KISS1R-HEK293, calcium flux fluorescence, agonist; series mostly up to 76.8 µM. The text has this: National Center for Advancing Translational Sciences [NCATS]
UniProt Q969F8, sequence (Q969F8 whole entry, looked up): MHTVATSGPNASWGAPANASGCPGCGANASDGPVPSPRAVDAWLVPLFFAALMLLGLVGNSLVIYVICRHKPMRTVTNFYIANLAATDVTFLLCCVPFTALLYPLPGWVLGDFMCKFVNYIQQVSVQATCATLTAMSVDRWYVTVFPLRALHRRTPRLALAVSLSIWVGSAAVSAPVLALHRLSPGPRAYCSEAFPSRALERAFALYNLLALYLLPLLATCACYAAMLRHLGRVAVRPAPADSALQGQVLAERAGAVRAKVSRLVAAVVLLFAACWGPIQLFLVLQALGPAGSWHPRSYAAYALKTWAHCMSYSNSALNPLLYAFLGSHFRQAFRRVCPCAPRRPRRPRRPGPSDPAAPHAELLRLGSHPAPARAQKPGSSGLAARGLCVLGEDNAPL
Division of Preclinical Innovation [DPI]
U.S. Environmental Protection Agency [EPA]
National Institutes of Environmental Health Sciences [NIEHS]
National Toxicology Program [NTP]
U.S. Food and Drug Administration [FDA]
Kisspeptin and its receptor KISS1R play key roles in mammalian reproduction due to their involvement in the onset of puberty and control of the hypothalamic-pituitary-gonadal axis such as regulates GnRH release from the hypothalamus. The kisspeptin/KISS1R system also plays a direct role in peripheral organs (including the ovary, testis, uterus, and placenta) and is implicated in reproductive diseases such as miscarriage and polycystic ovary syndrome (PCOS). Abnormal KISS1R activity is associated with abnormal puberty, infertility, endometriosis, and hormone-dependent tumors. The KISS1 receptor (KISS1R, also called GPR54), a G-protein-coupled receptor (GPCR), acts (through phospholipase C) to increase intracellular inositol trisphosphate and then release intracellular calcium stores. Cell-based KISS1R-HEK293 assay is using HEK293 cells that have been genetically engineered to express the human KISS1R, which activity can be measured by calcium signaling. A compound/drug can activate (agonist) KISS1R that can be monitored by levels of intracellular calcium.
KISS1R-HEK293 cells developed by Codex Corp contain human KISS1R gene, which was stably integrated into HEK 293 cells. The compound activation can be detected by fluorescence intensity via calcium flux assay. This cell line has been used to screen the Tox21 10K compound library to identify agonists of KISS1R.
KISS1R-Hek293 cells were dispensed at 1500 cells/4uL/well in 1536-well black wall/clear bottom plates using a multidrop dispenser. After the assay plates were incubated at a 37 C/5% CO2 incubator for 18 hours, 4 microL of Calcium Dye Solution was added to each well. The plates were incubated at 37 C for 1 hour. And then 23 nL of compounds dissolved in DMSO, positive controls, or DMSO only was transferred to the assay plate by a pin tool station. The fluorescence intensity in the plates was measured using FDSS 7000EX kinetic plate reader with a filter set of Ex/Em=480/540 for 3 min at 1 sec intervals. Each test compound was measured at 15 concentrations and in triplicates.
Regarding `COCCl`, the Potency result was “active: 45.3 µM [sample A] and inactive [sample B]”.

Take `O=C1C2CC=CCC2C(=O)N1SC(Cl)(Cl)Cl` (centres undefined): the Potency entry was “inactive [sample A] and active: 54.1 µM [sample B]”.

`COP(=O)(OC)OC`: the Potency result was “active: 49.4 µM [sample A] and inactive [sample B]”.

Take `CCOP(=O)(O)OCC` (tested in a mixture with another compound): the Potency entry was “inactive [sample A] and active: 15.4 µM [sample B]”.

Test system in the next assay: not listed separately
The assay can be described thus: p53 small molecule agonists, cell-based qHTS assay with human liver microsomes (AID 1963577).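 On activation: p53 response element beta-lactamase reporter cells with liver microsomes plus NADPH.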 To be noted: HCT-116 p53RE-bla with human liver microsomes, ratio, 16 h; series mostly up to 66 µM. The essentials: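 With metabolic activation: human liver microsomes (0.5 mg/mL final) plus NADPH (0.5 mg/mL final) added alongside compounds to p53RE-bla cells; 16 h 37 C exposure; beta-lactamase read by LiveBLAzer fluorescence.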
For orientation: qHTS replaces the single test concentration by a dilution series.
On to `CCOP(=S)(OCC)Oc1cnc2ccccc2n1`, for which the Potency result is “inactive [sample A] and active: 4.58 µM [sample B]”.

With `C[C@]12CC[C@H]3[C@@H](CC[C@@]45O[C@@H]4C(O)=C(C#N)C[C@]35C)[C@@H]1CC[C@@H]2O`, the Potency entry was “active: 36.3 µM [sample A] and inactive [sample B]”.

With `CCOS(=O)(=O)OCC`, the Potency entry was “active: 36.4 µM [sample A] and inactive [sample B]”.

For the origin of these results see PubChem BioAssay (Tox21).
